# Assay results taken from PubChem BioAssay AID1259418 (Broad Institute, 2018).
# Out of some 3,400 compounds screened, about 840 (25%) were called active. Inconclusive results, whose numbers are uncertain, are shown with a selection of clear calls.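 The calls were made as follows: active = fitted half-maximal concentration of signal decrease at or below twice the sample's top tested concentration; inconclusive = flat curve between -70 and -30 percent, or poor fit; inactive = flat within 30 percent, signal rise, or potency above limit.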
# Assay: T. gondii growth inhibition with IFN-gamma, dose response, cell-based, ME49Luc, HeLa, luciferase, 72 h (AID 1259418)
# Details: T. gondii ME49Luc in IFN-y HeLa, stronger effect = lower value, -100% = high-dose IFN-γ control wells
compound,measurement,setting,value
COc1ccccc1C#Cc1ccc([C@H]2[C@@H](CO)N3CCCCN(C(=O)C4CCC4)C[C@H]23)cc1,max activity,at 19.5 µM unless noted,inconclusive: -46.6%
COc1ccc(S(=O)(=O)N2CCCCN3[C@H](CO)[C@@H](c4ccc(C#CCC(C)C)cc4)[C@H]3C2)cc1,max activity,at 19.5 µM unless noted,inconclusive: -112%
Cc1cccc(CNC2=NCCNC23CCN(S(=O)(=O)c2ccc(C)cc2C)CC3)c1,max activity,at 19.5 µM unless noted,inconclusive: -38.6%
COc1ccc(-c2nc3c(s2)CN(C(=O)Nc2cc(C)ccc2C)CC3)cc1OC,max activity,at 19.5 µM unless noted,inconclusive: -29.4%
COc1cc(NC(=O)N2CCc3nc(-c4ccc(C)cc4)sc3C2)cc(OC)c1,max activity,at 19.5 µM unless noted,inconclusive: 6.46% [at 2.6 µM]
CCS(=O)(=O)N1CC(=O)N2[C@H](CO)[C@@H](c3ccc(-c4cccc(F)c4)cc3)[C@@H]2C1,max activity,at 10 µM,inconclusive: -54.2%
same,max activity,at 19.5 µM,inactive: -8.63%
O=C(Cc1cccnc1)N1CC(=O)N2[C@H](CO)[C@H](c3ccc(C#CC4CCCCC4)cc3)[C@@H]2C1,max activity,at 19.5 µM unless noted,inconclusive: -54.1%
C/C=C/c1ccc(C2[C@@H]3CN(S(=O)(=O)c4cccc(OC)c4)C[C@H]2N3)cc1 (some centres undefined),max activity,at 19.5 µM unless noted,inconclusive: -65.2% [at 21 µM]
N#Cc1ccc(-c2ccc3c(c2)[C@@H]2[C@@H](CCN2C(=O)C2CCCCC2)[C@@H](CO)N3)cc1,max activity,at 19.5 µM unless noted,inconclusive: 29.2% [at 5 µM]
CCOC(=O)c1ccc(NC(=O)COc2nc(C)nc3ccccc23)cc1,max activity,at 19.5 µM unless noted,inconclusive: -42.2% [at 10 µM]
O=C(Nc1ccc(-c2nc(-c3ccccc3)co2)cc1)c1cccs1,max activity,at 19.5 µM unless noted,inconclusive: 80%
COc1ccccc1-c1noc(C2CCCN2C(=O)c2sc(C)nc2C)n1 (centres undefined),max activity,at 19.5 µM unless noted,inconclusive: -49.5% [at 0.16 µM]
O=C(COc1ccc(Br)cc1)Nc1cncc(-c2nc3ccccc3o2)c1,max activity,at 19.5 µM unless noted,inactive: 8.52% [at 0.16 µM]
O=C(NCCc1csc(-c2ccccc2)n1)C1CCN(S(=O)(=O)c2ccc(Cl)s2)CC1,max activity,at 19.5 µM unless noted,inconclusive: -33.8% [at 1.35 µM]
CCc1cnc(N2[C@H](CO)[C@H](c3ccc(C4=CCCCC4)cc3)[C@@H]2C#N)s1,max activity,at 19.5 µM unless noted,inconclusive: -21.1% [at 0.16 µM]
CCc1onc(C)c1C1CCCN1Cc1cn(CC(=O)OC)c2ccc(OC)cc12 (centres undefined),max activity,at 19.5 µM unless noted,inactive: 13.3% [at 5 µM]
COc1ccc(C(=O)Nc2ccc(-c3nc(-c4ccccc4)co3)cc2)cc1,max activity,at 19.5 µM unless noted,inconclusive: 30.9% [at 10 µM]
CC(C)NC(=O)N1CC(=O)N2[C@H](C1)[C@@H](c1ccc(/C=C/c3ccccc3)cc1)[C@@H]2CO,max activity,at 19.5 µM unless noted,inconclusive: -87.6% [at 1.2 µM]
